The values that follow come from publication PMC3901001, “Activation-triggered subunit exchange between CaMKII holoenzymes facilitates the spread of kinase activity” (eLife, 2014).

A word on the stoichiometry N: it is a count of units in the complex or per binding partner.

Data set [1] deals with the molecule itself. Briefly: SEC; gel filtration of the purified, unactivated protein (25 mM Tris pH 8.0, 150 mM KCl, 2 mM TCEP, 10% glycerol).
Data set [2] concerns the target T1, Calmodulin (from Gallus gallus), Ca2+-bound (Gallus gallus, UniProt P62149).
T1 construct: calmodulin, Gallus gallus; also called CaM; Ca^2+/CaM; source: expressed using a pET-15b vector, purified as described previously (Putkey and Waxham, 1996)
In words: dynamic light scattering; conditions of the mixing experiments, 37°C, 1 hr: CaMKII^T286D with ATP; wild type with Ca2+/CaM and ATP. Conditions: both partners purified.

B1: full-length human α isoform of CaMKII (CaMKIIα), wild type (enzyme)
chain: not shown
modifications: biotin on the Avitag (BirA); Alexa 488 or Alexa 594 C5-maleimide at Cys 280
notes: Dodecameric holoenzyme; unphosphorylated as purified; also called wild-type CaMKII; wild-type holoenzyme; source: E. coli Tuner (DE-3)pLysS with a plasmid for λ phosphatase, purified (Ni-NTA, Q-FF, gel filtration); not shown: SUMO, N-terminal, cleaved; Avitag, C-terminal, kept
In the case of B1, the “stoichiometry N” value in data set [1] turned out to be 12. In addition, in data set [2], the binding result was “binds”.
